{
  "source": "PubChem BioAssay AID1345082",
  "about": "(National Center for Advancing Translational Sciences (NCATS), 2018)",
  "note": "The campaign covered roughly 94,000 compounds. About 4,000 (4.3%) were called active. This list was built around the results that the source calls inconclusive (neither active nor inactive); the mix of calls is not that of the screen. Calls come from the whole dose curve; as a rule, active = well fitted inhibition curve with a large enough effect; inconclusive = small, poorly fitted or top-dose-only effect; inactive = no such curve, though single readings can be large or run the other way. Where the call is inconclusive, the potency comes from a doubtful curve fit. % is set by controls: 0 for no effect and ±100 for the full control effect; potency is the fitted concentration of half-maximal effect; tags give direction and shape of the fitted curve.",
  "data": [
    {"experiment": "Cytotoxic Profiling in NIH 3T3 Cell Line of Diverse Libraries Using Quantitative High-Throughput Screening; note: nearly all actives have a fitted effect of over 55% in size", "details": "NIH 3T3 viability, CellTiter-Glo ATP luminescence, 48-72 h; activity change, negative = cytotoxicity: at 96.7 µM (top of the series) unless noted; series mostly up to 96.7 µM", "procedure,_shortened": "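Viability of NIH 3T3 cells after 48 or 72 hr compound treatment at 37 °C was assessed by CellTiter-Glo, with luminescence imaged following a 10 min room-temperature step.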", "values": [
      {"smiles": "O=C(NCc1ccc(Cl)cc1)[C@@H]1Cc2nc[nH]c2CN1Cc1ccc(CO)o1", "activity change, negative = cytotoxicity": "inactive: 4.37% [at 138 µM]"},
      {"smiles": "Cc1nc(N2CCC(NC(=O)c3ccccn3)CC2)cc(C(F)(F)F)n1", "Potency": "inconclusive: 22.4 µM [inhibitor, partial curve, poor fit]"},
      {"smiles": "O=C1NCCCCCN(C(=O)CCC2CCCC2)[C@H]2CCCC[C@@H]12", "Potency": "inconclusive: 70.8 µM [inhibitor, partial curve, poor fit]"},
      {"smiles": "COc1cccc(C(=O)N2C[C@@H](C(N)=O)[C@@H]3Oc4c(C)cccc4[C@@H]32)c1", "Potency": "inconclusive: 79.4 µM [inhibitor, partial curve, poor fit]"},
      {"smiles": "O=C(NCCc1ccccc1F)c1nc2sccn2c1-c1ccccc1", "Potency": "inconclusive: 44.7 µM [inhibitor, partial curve, poor fit]"},
      {"smiles": "CC(C)(C)C(=O)N1CCN(c2nccc(Nc3ccccc3F)n2)CC1", "Potency": "inconclusive: 50.1 µM [inhibitor, partial curve, poor fit]"},
      {"smiles": "COc1cc(Cl)ccc1C(=O)N1CCC2(CC1)NC(=O)N(c1ccc(F)cc1)N2", "Potency": "inconclusive: 7.94 µM [inhibitor, full curve, poor fit]"},
      {"smiles": "O=C1Nc2ccc(-c3ccc4c(c3)OCO4)cc2C(=O)N2CCN(C(=O)c3cccs3)C[C@@H]12", "Potency": "active: 35.5 µM"},
      {"smiles": "Cc1cccc(CN2CCNc3cc(-c4ccnc(C)c4)ncc3C2)c1", "Potency": "inconclusive: 39.8 µM [inhibitor, partial curve, poor fit]"},
      {"smiles": "O=C(Cn1ccn2nc(-c3ccc(F)cc3)c(CO)c2c1=O)Nc1ccc(F)c(Cl)c1", "Potency": "inconclusive: 50.1 µM [inhibitor, partial curve, poor fit]"},
      {"smiles": "CC(C)c1noc(C2CCCN(Cc3cc(=O)c4cccc(F)c4[nH]3)C2)n1", "note": "(centres undefined)", "Potency": "inconclusive: 35.5 µM [inhibitor, full curve, poor fit]"},
      {"smiles": "COc1ccccc1-c1ccc(C(=O)N2CCC(C(=O)NCCCc3ccccc3)CC2)cc1", "Potency": "inconclusive: 44.7 µM [inhibitor, partial curve, poor fit]"},
      {"smiles": "Cn1cc(Cl)cc1C(=O)N1CCCC(c2ccc(C(=O)O)cc2)C1", "note": "(centres undefined)", "Potency": "inconclusive: 56.2 µM [inhibitor, partial curve, poor fit]"},
      {"smiles": "COCC(=O)N1C[C@@H](COC)[C@H](c2ccncc2)C1", "activity change, negative = cytotoxicity": "inactive: -2.71%"},
      {"smiles": "O=S(=O)(c1ccc(F)cc1)N1CCCC(Cc2noc(-c3ccncc3)n2)C1", "note": "(centres undefined)", "Potency": "inconclusive: 44.7 µM [inhibitor, partial curve, poor fit]"},
      {"smiles": "OC1CC(c2cc(N3CCC(c4nnc5ccccn45)CC3)ncn2)C1", "note": "(centres undefined)", "activity change, negative = cytotoxicity": "inactive: -1.85%"},
      {"smiles": "CN(C(=O)[C@@H]1C[C@H](c2ccc(F)cc2)N([S+](=O)([O-])C2CC2)C1)c1cccnc1", "Potency": "inconclusive: 89.1 µM [inhibitor, partial curve]"},
      {"smiles": "O=C(Cn1nc2c(cc1=O)CCCC2)NC1CC1", "activity change, negative = cytotoxicity": "inactive: -1.47%"},
      {"smiles": "CNC(=O)c1cc(C)nc2onc(C3CCCN3C(=O)c3ccncc3)c12", "note": "(centres undefined)", "activity change, negative = cytotoxicity": "inactive: -22.3%"},
      {"smiles": "Cc1ncccc1C(=O)N1CCCCCCN(C)C(=O)[C@@H]2CCC[C@@H]21", "activity change, negative = cytotoxicity": "inactive: 0.471%"},
      {"smiles": "COc1ccc2c(c1)CN(CC1CC1)C(=O)CCN2C(=O)C1CCC1", "Potency": "inconclusive: 56.2 µM [inhibitor, partial curve, poor fit]"},
      {"smiles": "O=C(NCCc1ccccc1)c1ccc2c(c1)OCCN(c1ccccc1)C2", "Potency": "inconclusive: 25.1 µM [inhibitor, full curve]"},
      {"smiles": "Cc1cc(CNC(=O)c2cccc(F)c2F)c2[nH]c(C)c(C)c2c1", "Potency": "inconclusive: 50.1 µM [inhibitor, partial curve, poor fit]"},
      {"smiles": "COc1ccc(-c2noc(CC3CCN(C(=O)Cc4ccccc4OC)CC3)n2)cc1", "Potency": "inconclusive: 39.8 µM [inhibitor, partial curve, poor fit]"},
      {"smiles": "O=C(Cc1ccc(F)cc1)N1CCC[C@H]1c1nc(-c2ccccc2Cl)no1", "Potency": "inconclusive: 39.8 µM [inhibitor, partial curve, poor fit]"},
      {"smiles": "COc1cccc(CN2C[C@@H]3C(=O)N(Cc4ccc5c(c4)OCO5)C(=O)[C@@H]3C2)c1OC", "activity change, negative = cytotoxicity": "inactive: -27.8%"},
      {"smiles": "O=C(c1cc2c(s1)CCC(C(=O)N1CCN(C3CCCC3)CC1)C2)N1CCCCCC1", "note": "(centres undefined)", "Potency": "inconclusive: 31.6 µM [inhibitor, partial curve, poor fit]"},
      {"smiles": "CC(C)(C)CC(=O)N1CCC2(CC1)C(=O)N(CC(=O)Nc1ccc(F)cc1)CN2c1ccccc1", "Potency": "inconclusive: 28.2 µM [inhibitor, full curve, poor fit]"},
      {"smiles": "COc1cccc(CC(=O)Nc2ccc3c(c2)CN(Cc2ccccc2OC)C(=O)C(C)O3)c1", "note": "(centres undefined)", "Potency": "inconclusive: 44.7 µM [inhibitor, partial curve, poor fit]"},
      {"smiles": "O=C1NC(=NC2CCCC2)C2(CCN(Cc3ccsc3)C2)N1c1cc(F)cc(F)c1", "note": "(centres undefined)", "Potency": "inconclusive: 70.8 µM [inhibitor, partial curve, poor fit]"},
      {"smiles": "Cn1nc(C(=O)NC2CCN(c3cc(-c4cccs4)[nH]n3)C2)c2ccccc21", "note": "(centres undefined)", "Potency": "inconclusive: 70.8 µM [inhibitor, single point]"},
      {"smiles": "O=C1CC(c2ccccc2)N(C(=O)C2CC2)CCCN(S(=O)(=O)c2cccs2)CCN1", "note": "(centres undefined)", "activity change, negative = cytotoxicity": "inactive: -14.7%"},
      {"smiles": "O=C1Nc2ccccc2CC12CCN(Cc1ccc(C(F)(F)F)cc1)CC2", "Potency": "inactive"},
      {"smiles": "Cn1ncc2c(C(=O)NCCN3CCOCC3)cc(-c3ccccc3C(F)(F)F)nc21", "activity change, negative = cytotoxicity": "inactive: 0.531%"},
      {"smiles": "CSCC(=O)N1CC[C@H](NC(=O)NC(C)C)[C@H]1C(=O)N(C)CC(N)=O", "outcome": "inactive [at 174 µM]"},
      {"smiles": "CN(C)c1cccc(C(=O)N2CCC(n3cc(-c4nc(C5CC5)no4)nn3)C2)c1", "note": "(centres undefined)", "Potency": "inconclusive: 39.8 µM [inhibitor, partial curve]"},
      {"smiles": "CCCCOC(=O)N1CCC2(CC1)[C@@H](C(=O)OCC)[C@@H](O)C(=O)N2Cc1ccccc1", "Potency": "inconclusive: 50.1 µM [inhibitor, partial curve, poor fit]"},
      {"smiles": "CN(C)C(=O)c1nc(-c2ccc(Cl)cc2)c2ccccn12", "Potency": "inconclusive: 44.7 µM [inhibitor, partial curve, poor fit]"},
      {"smiles": "CC(C)N1CCCC2(CCN(C(=O)c3cccc4nccnc34)C2)C1=O", "note": "(centres undefined)", "activity change, negative = cytotoxicity": "inactive: -12%"}
    ]}
  ]
}
